Data published in paper PMC5651818, “VPS18 recruits VPS41 to the human HOPS complex via a RING–RING interaction” (Biochemical Journal, 2017).
These are yes or no findings as the source states them, for the method shown. Tags and fused reporters may be left off the sequences shown.

T1: GST VPS8 RING long (residues 1246–1426) (human) (UniProt Q8N3P4)
T1 sequence: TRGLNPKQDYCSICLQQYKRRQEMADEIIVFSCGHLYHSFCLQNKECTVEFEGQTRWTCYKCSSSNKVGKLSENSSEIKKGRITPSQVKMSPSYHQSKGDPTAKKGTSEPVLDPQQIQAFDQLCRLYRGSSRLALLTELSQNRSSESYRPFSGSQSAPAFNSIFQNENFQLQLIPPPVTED

T2: GST VPS8 RING short (residues 1246–1320) (human) (UniProt Q8N3P4)
T2 sequence: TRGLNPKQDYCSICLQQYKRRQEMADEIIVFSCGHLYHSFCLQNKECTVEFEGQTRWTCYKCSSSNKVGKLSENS

B1: tag-free VPS41 RING domain (residues 778–854) (domain or fragment, human, UniProt P49754 778-854, looked up)
chain: TQMKGVLVDEENICESCLSPILPSDAAKPFSVVVFHCRHMFHKECLPMPSMNSAAQFCNICSAKNRGPGSAILEMKK
notes: monomeric by SEC-MALS; also called untagged VPS41 RING; not shown: GST, N-terminal, cleaved
B2: His-tagged VPS18 RING domain (residues 842–973) (domain or fragment, UniProt Q9P253 842-973)
chain: GRYGTVEPQDKCATCDFPLLNRPFYLFLCGHMFHADCLLQAVRPGLPAYKQARLEELQRKLGAAPPPAKGSARAKEAEGGAATAGPSREQLKADLDELVAAECVYCGELMIRSIDRPFIDPQRYEEEQLSWL

What was measured:
[1] = target: tag-free VPS41 RING domain (residues 778–854) (human) (UniProt P49754); experiment: SEC-MALS; Superdex 75 10/300, room temperature, 20 mM Tris (pH 7.5), 150 mM NaCl, 0.5 mM EDTA; complex formed from 0.48 mg/ml VPS41 RING and 0.68 mg/ml VPS18 RING H6 on ice for 15 min; both purified
[2] = target: His-tagged VPS18 RING domain (residues 842–973) (human) (UniProt Q9P253); experiment: as above
[3] = target: T1, GST VPS8 RING long (residues 1246–1426) (human); experiment: pull-down; 1.5 nmol purified GST-tagged bait on magnetic glutathione beads; 1.5 nmol purified prey from E. coli; 4°C, 60 min; 20 mM Tris, 200 mM NaCl, 0.1% NP-40, 1 mM DTT; SDS-PAGE (Coomassie); both purified
[4] = target: T2, GST VPS8 RING short (residues 1246–1320) (human); experiment: as above

Binder	binding [1]	binding [2]	binding [3]	binding [4]
B1	no binding (tested: injected at 1.33 mg/ml)			
B2		no binding (tested: injected at 1.16 mg/ml)	no binding (tested: 1.5 nmol bait, 1.5 nmol prey)	no binding (tested: 1.5 nmol bait, 1.5 nmol prey)
